# Source: PubChem BioAssay AID1159614 (National Center for Advancing Translational Sciences (NCATS), 2016)
# Screen size: about 45,000 compounds; about 65 (0.1%) were called active. Calls come from the whole dose curve; as a rule, active = well fitted activation curve with a large enough effect; inconclusive = small, poorly fitted or top-dose-only effect; inactive = no such curve, though single readings can be large or run the other way. The list shows a part of the results.
# Biological target: Galactocerebrosidase (Homo sapiens) (UniProt P54803)
# Chain of UniProt P54803 (P54803 whole entry, looked up): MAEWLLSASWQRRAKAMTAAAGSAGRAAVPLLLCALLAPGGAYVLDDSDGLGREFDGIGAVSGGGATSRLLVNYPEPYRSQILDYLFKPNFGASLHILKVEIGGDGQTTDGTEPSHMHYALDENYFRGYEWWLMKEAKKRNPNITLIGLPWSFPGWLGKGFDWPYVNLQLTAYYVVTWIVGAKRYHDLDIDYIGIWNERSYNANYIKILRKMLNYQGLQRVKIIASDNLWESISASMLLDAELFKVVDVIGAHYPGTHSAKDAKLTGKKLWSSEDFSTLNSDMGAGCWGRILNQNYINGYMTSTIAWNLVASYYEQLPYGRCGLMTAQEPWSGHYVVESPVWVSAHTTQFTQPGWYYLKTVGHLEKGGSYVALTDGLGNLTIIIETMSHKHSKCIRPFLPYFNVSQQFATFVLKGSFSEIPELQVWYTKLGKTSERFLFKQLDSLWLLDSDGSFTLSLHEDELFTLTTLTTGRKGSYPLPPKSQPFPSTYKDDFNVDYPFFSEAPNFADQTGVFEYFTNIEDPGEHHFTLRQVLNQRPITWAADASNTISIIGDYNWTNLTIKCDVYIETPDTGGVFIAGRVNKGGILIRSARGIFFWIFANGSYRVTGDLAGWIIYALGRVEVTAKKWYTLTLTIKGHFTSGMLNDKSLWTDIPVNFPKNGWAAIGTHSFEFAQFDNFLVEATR
# Test: A Novel Cell-Based Assay to Identify Small Molecules for B -Galactocerebrosidase; note: 0% is about no effect; nearly all actives have a fitted effect of over 65% in size
# Conditions: 145M-Twi-hGALC-G270D cells (Twitcher mouse brain line with human GALC G270D), HMU-beta-Gal fluorescence, 48 h; series mostly up to 57.5 µM; activation: at the top concentration
# Outline: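 Mutant human GALC (G270D), stably expressed in a Twitcher mouse brain cell line lacking endogenous GALC, is measured in live-treated cells via 6-hexadecanoylamino-4-methylumbelliferyl-β-galactoside hydrolysis (0.1 mM final, pH 5.2) with fluorescent detection.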
row,SMILES,activation
1,Cc1ccc(CCNC(=O)c2cc3c(s2)-c2c(C)cccc2OC3)cc1,inactive: -22.6%
2,COc1cccc(CNC(=O)c2ccc(-c3nc(COc4ccccc4)c(C)o3)cc2)c1,inactive: -5.19%
3,Cc1ccc2nc(COc3ccccc3NC(=O)C(C)(C)C)cc(=O)n2c1,inactive: -6.75%
4,O=C(Nc1sc2c(c1C(=O)NCc1cccnc1)CCCC2)c1cc(=O)c2ccccc2o1,inactive: 25.2%
5,CCOc1ccc(C2CC(c3c(O)n(C4CCCCC4)c(=O)[nH]c3=O)=Nc3ccccc3S2)cc1 (stereo unspecified),inactive: -12.6%
6,COc1cccc2c1cc1c(=O)n(CC(=O)NCc3ccc(C)o3)nc(C)n12,inactive: -5.57%
7,COc1cccc(-n2c(SCC(=O)Nc3c(C)cc(C)cc3C)nc3c([nH]c4ccccc43)c2=O)c1,inactive: -18.3%
8,Cc1nn(C(=O)c2cccc(Cl)c2)c(C)c1S(=O)(=O)N1CCOCC1,inactive: -35.4%
9,CCn1c(=O)cc(SCC(=O)NCc2ccc(OC)cc2OC)c2ccccc21,inactive: -9.25%
10,Cc1cccc(-c2nc(CCNC(=O)Cc3ccccc3)cs2)c1,inactive: -27.8%
11,COc1ccc(CCNC(=O)c2ccc3c(c2)N(Cc2ccc(F)cc2)C(=O)CS3)cc1OC,inactive: -9.1%
12,O=C(COc1ccc(Cl)cc1)Nc1ccc2nc(SCC(=O)N3CCCC3)sc2c1,inactive: -13.6%
13,COc1ccc(OC)c(NC(=O)CSc2ccc(-c3sc(C)nc3C)nn2)c1,inactive: -18.1%
14,CCOC(=O)c1c(-c2ccccc2)oc2ccc(N(C(C)=O)S(=O)(=O)c3ccc(CC)cc3)cc12,inactive: -20.9%
15,O=C(c1nc(-c2ccc(Cl)cc2)n2c1CCCCC2)N1CCN(c2ccccc2)CC1,inactive: -18.5%
16,O=C(COc1ccccc1-c1nc(-c2ccccc2)no1)Nc1cccc([N+](=O)[O-])c1,inactive: -9.04%
17,OC(CCN1CCCCC1)(c1ccccc1)C1CCCCC1 (stereo unspecified),inactive: -14.8%
18,CCC(=O)N1CCc2cc(S(=O)(=O)NC(CC(C)C)C(=O)NCCc3ccccc3)ccc21 (stereo unspecified),inactive: -14.7%
19,COc1ccc(CCNC(=O)C(=O)NCC(c2ccco2)S(=O)(=O)c2cccs2)cc1OC (stereo unspecified),inactive: -7.6%
20,CCC1=Nc2cc(C(=O)NCCN(CC)CC)ccc2Sc2ccccc21,inactive: -17.6%
21,CCc1nc2cccnc2n1-c1ccc(CC(=O)Nc2cccc(C)c2C)cc1,inactive: -50.6%

row,SMILES,activation
1,c1ccc(CN2CCN(c3ncnc4c3cnn4-c3ccccc3)CC2)cc1,inactive: -15.5%
2,CCc1cccc(NC(=O)C2CCC(CNS(=O)(=O)c3ccc(Br)s3)CC2)c1 (stereo unspecified),inactive: -18.3%
3,Cc1ccc(NC(=O)c2cc(S(=O)(=O)N3CCc4ccccc43)cn2C)c(Cl)c1,inactive: -29.7%
4,Cc1ccccc1OCC(=O)Nc1cccc(C(=O)OCc2cc(=O)n3c(C)csc3n2)c1,inactive: -8.23%
5,COC(=O)c1ccccc1NC(=O)c1cc2cc(C)ccc2n1C,inactive: -24.5%
6,CCOc1ccc(-c2c(C)nn3c(C)c(C(=O)NCCc4ccc(Cl)cc4)cnc23)cc1OCC,inactive: -13%
7,Cc1ccc(S(=O)(=O)Cc2ccc(C(=O)N3CCN(c4cccc(Cl)c4)CC3)o2)cc1,inactive: -10.6%
8,O=C(Cn1c(=O)n(-c2ccc(Cl)cc2)c(=O)c2sc3ccccc3c21)NC1CCCC1,inactive: -12.6%
9,Cc1ccccc1Cn1c2ccccc2c2cnn(CC(=O)NCc3ccccn3)c(=O)c21,inactive: -5.44%
10,CCSc1ccccc1C(=O)Nc1ccc(-c2nc3ccccc3s2)c(O)c1,inactive: -13.6%
11,Cc1ccc(C)c(N2CCN(C(=O)NCc3noc4ccc(C)cc34)CC2)c1,inactive: -14.4%
12,O=C(NCCc1ccccc1)C1CCC(CNS(=O)(=O)c2ccc(Cl)cc2)CC1 (stereo unspecified),inactive: -9.26%
13,Cc1ccc(C)c(S(=O)(=O)c2nnn3c2nc(NC2CCCCC2)c2sccc23)c1,inactive: -9.09%
14,CCc1ccc(-n2nc(CO)c(C(=O)NCCCc3ccccc3)n2)cc1,inactive: -7.58%
15,Cc1ccc(-c2nc(NC(=O)CSc3nc(C)nc4sc5c(c34)CCCC5)ns2)cc1,inactive: -18.3%
16,CC1CCN(S(=O)(=O)c2ccc3c(ccn3CCC(=O)NCc3ccccc3F)c2)CC1,inactive: -20.5%
17,O=C(OCc1ccccc1)c1ccccc1,inactive: -15.2%
18,CCOC(=O)c1cccc(NC(=O)C2Cc3ccccc3N2C(=O)c2ccccc2)c1 (stereo unspecified),inactive: 5.62%
19,CCOc1ccc(C(=O)NC2CC(=O)N(c3ccc(C)cc3)C2)cc1OCC (stereo unspecified),inactive: 0.316%
20,O=C(Nc1ccc2c(c1)N(C1CCCC1)C(=O)c1ccccc1S2)c1ccccc1F,inactive: -8.36%
21,COc1ccc(NC(=O)c2c(-c3ccccc3)c(-c3ccccc3)nn(C)c2=O)cc1OC,inactive: -8.4%

row,SMILES,activation
1,Cc1cccc(-n2ncc3c(Nc4ccc(C)c(Cl)c4)ncnc32)c1,inactive: -15.3%
2,Cc1sc2c(c1C)c(=O)n(Cc1ccccc1)c(=O)n2Cc1ccc(F)cc1,inactive: 2.56%
3,Cc1ccccc1NC(=O)CCS(=O)(=O)c1cc(Br)cc2c1N(C(=O)C1CC1)CC2,inactive: -12.9%
4,CCc1nn(CC(=O)N2CCCCC2)c(=O)c2cc3sc(C)cc3n12,inactive: -10.2%
5,Cc1ccccc1CNC(=O)CN1C(=O)C2CCCCN2c2ccc(C(=O)N3CCCC3)cc21 (stereo unspecified),inactive: -5.9%
6,Cc1ccc(C)c(Cn2c(=O)n(C(C)C)c(=O)c3oc4ccccc4c32)c1,inactive: -1.48%
7,Cc1ccc(C(=O)c2oc3ccccc3c2NC(=O)COc2ccc(C(C)C)cc2)cc1,inactive: -4.17%
8,O=C(Nc1ccc(S(=O)(=O)Nc2ncccn2)cc1)c1cc(=O)c2ccccc2o1,inactive: 29.9%
9,COc1ccc(-c2cn3cccnc3n2)cc1NC(=O)Nc1ccc(Cl)cc1,inactive: -2.83%
10,CCOc1ccc(NC(=O)c2ccc3c(c2)CCN3S(=O)(=O)CC)cc1,inactive: -6.39%
11,COc1ccc(-c2cc(-c3ccccc3)nc3c2COc2ccc(F)cc2-3)cc1,inactive: -10.8%
12,CCN(CC)C(=O)Cn1c(=O)cc(C)c2c(C)nn(-c3ccc(C)cc3)c21,inactive: -8.23%
13,COc1ccc2[nH]c3c(c2c1)CCN(C(=O)c1cccc(Cl)c1)C3c1ccc(F)cc1 (stereo unspecified),inactive: -33.1%
14,Cc1ccc(S(=O)(=O)N2CCCc3cc(NS(=O)(=O)c4cc(C)ccc4C)ccc32)cc1,inactive: -17.6%
15,CC(C)c1nn2c(=O)cc(COC(=O)c3ccc(NC(=O)C4CCCCC4)cc3)nc2s1,inactive: -3.2%
16,Cc1ccc(CSc2ncc(Cl)c(C(=O)NCc3ccccc3)n2)cc1,inactive: -14.5%
17,CC1(C)S[C@@H]2[C@H](NC(=O)C(c3ccccc3)S(=O)(=O)O)C(=O)N2[C@H]1C(=O)O (stereo partly specified),inactive: -8.31%
18,CCn1cc(C(=O)NCCCOC(C)C)c(=O)c2cc(S(=O)(=O)N3CCOCC3)ccc21,inactive: -12.5%
19,CCOC(=O)c1cnc2c(ccc3ccccc32)c1Nc1ccc(N(C)C)cc1,inactive: -12.6%
